Results taken from the supplement of paper PMC10126150.
Sequences with one replicate were seen in a single cluster, so their values are uncertain.

The sequences below were run on ATP (assay: switch fluorescence ratio, 500 uM ATP over buffer (Cy3 cluster intensity, sum of 5 cycles each) (fold (ratio)); higher = stronger signal-on switching upon ATP binding; sequences stand for … in TCGTCGGCAGCGTCAGATGTGTATAAGAGACAGTTTTTTTTTTTTTTTTTTTTTTTTT…TC). Conditions: aptamer strand: ATP DNA aptamer (quencher-CACCTGGGGGAGTATTGCGGAGGAAGG + anchor), 100 nM annealed; ATP concentration: 500 uM; one replicate.
Summary of the method: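 For every switch-domain sequence, the fluorescence ratio is the mean of per-cluster values, each being summed target-cycle Cy3 intensity over summed buffer-cycle Cy3 intensity. Clusters outside 100-1000 RFU were excluded. On a modified Illumina MiSeq flow-cell, the Cy3-labelled switching-strand clusters were annealed to 100 nM quencher-labelled ATP aptamer, imaged in selection buffer and then after 15 min with 500 uM ATP at 22 °C. Five such cycles were run, with NaOH stripping and re-annealing between them.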
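Note: ATP exposure 15 min at 22 °C before imaging.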

Sequence	switch fluorescence ratio
CCCAGTCGGA	0.984
GACAAACGG	1.14
AAACGTTGGG	1.02
GCTGCGAGCA	0.98
CGTTCGCCGA	0.898
CGGGCGAAGG	0.938
CGGCGGGCCG	0.999
AAATCAATTG	0.974
TGATAATCGA	1.01
ATTGATCGG	0.987
AAATGATCTC	0.958
TATGCTTGAA	0.97
TTCCGCTAGG	1.08
GGTGTTAAA	0.955
TTTGGGTCTA	0.95
CGTCATTCCA	0.979
GCGTGTGGGA	1.05
TGCGACCTAA	1.08
TCGACCGTAC	2.28
TTAATCGGTC	1.01
AATACTAATA	0.991
ACCCCGCGTT	1.43
ATTGGTTCTT	0.965
TACCTAGCGG	0.997
CGCCAGTAGA	1
GGGCCATGAT	0.998

Sequence	switch fluorescence ratio
GAGCGTTTTG	1.03
GTCGGAAATC	0.981
CAACGGGGA	0.966
ACACGGTCTT	1.01
CATGATCCTC	1.09
GAGTGTGTAT	1.05
TGAACTGGGT	0.977
CTTATAGGCG	0.991
TAGGAATCGG	0.999
AGAATATCAG	0.989
GGGGAAGTGT	1
ACCAATCTCC	2.23
TTGCTGTAAC	1
CTTAATCTTT	0.998
TCGGCTGAGA	0.985
TACTTTATAA	1.08
GCTGCGCCAC	2.29
GAAGCGAGTC	1.28
GGTAGCCAAT	0.988
ATAATTGATA	1
GCTAACGTAT	1.06
CCTAAAATCC	1.09
CATTATGATT	0.998
GCCTCGGTAA	1.46
GATTATACGG	0.977
GCTCCCTGAA	1.2

Sequence	switch fluorescence ratio
ATTTTTATTA	0.987
GACTATTTAT	1.04
CAGTATTATA	0.995
ACTACGAAAC	2.14
TACGGATAG	1.03
GTTACTTATG	1.05
ACCAGGTACA	1.12
CTCGGTAAAT	1
CCCCGGATCA	1.06
AACTTGTCCG	0.98
CATTTTTGAC	1.01
TGTCAGCTCT	0.957
GAGGAAACTT	1.08
ATTTTACGTC	1.07
CTGCTTTTTG	0.993
TAACGTTGTA	1.02
TTACGGCGCC	1.02
TTGAGGAGTG	1.01
GTAATTATAC	1.08
TCATGTATCC	0.985
TTTAATCTCG	1.02
TCAGTCCGTT	1.01
GTTCGGGGTC	1.07
TGGATGAGCC	0.98
CTAGGAGTC	0.995
CTTTATATCA	0.949

Sequence	switch fluorescence ratio
GACCCAGCTG	1.04
ATTCTTGTTA	0.968
AATGAGGGTT	0.966
CGAACGAGAG	1.09
GGATGGGCGT	0.973
AAGTATTTAC	1.03
ATTAAGTCTG	0.953
GCGAGGAGGG	0.988
AGCTTGTCA	0.984
TCTTTGGGCA	1
TCTTTCTGAG	1.02
GGAGAACGGC	1.05
GGCCGCTGGG	1.02
AACCCGCGCA	1.38
GCAGGCTA	0.994
CTGGATGGTA	0.976
GGGGTCAAGT	0.989
ATTGTTGACC	0.997
ATTATACAA	0.974
GGTTACTGGG	0.997
TAGGTGGT	1.02
CGGGTATGAG	0.95
ACGCTGAGGC	1.05
TCAAGTTAAA	1.04
CATAACCTCG	0.983
GACGCGGGCA	1.03

Sequence	switch fluorescence ratio
AAACACTGTG	1.03
AGTGCAATTC	3.56
CATGTAAAAG	0.997
GTTTAGCGGC	1
GTTACAAAAC	0.977
CGTAGAAACG	0.997
ATGGTGTGTC	0.944
TCAGCCCCCC	1.02
TCAAGAGTAA	1.03
CGAAGAGACA	1.06
TGTGTGTGCT	0.979
GGATCAAGTT	0.969
GGGGCCTGTA	0.941
ACCATGGGG	0.996
GCCTTTATAC	1.42
AGAAGCGCTT	0.941
CATGTCCTGC	0.971
TCTCAGGCCG	1.02
TCATGTTTAC	0.956
GTGCGGTA	1.04
TCAGCCGGAG	1.03
CAAATTAGTT	0.998
GCATGTCATC	1.01
ATGGTTACAT	1.05
GGCGGAAAAG	0.992
TTGGCTGGAA	0.995

Sequence	switch fluorescence ratio
TCGGGGACGA	1.03
GACGGAAGTG	0.966
TATATGCTTA	0.974
AAGAGCGGAT	0.978
GGTATAGTGG	0.931
GACTTTCTAT	1
TGGGGACGTA	0.998
TTCGTAAACT	1.08
GATCAGTCAA	1.01
AGGTTGGACC	0.935
GGAATTCCG	0.994
CTGGCAAATG	1.06
GAACTAGTC	0.92
TTCAAGAGGG	0.972
AATGACGTCA	0.98
AAGAACGTTA	1.11
TTCGAAGTGG	1.29
CAGAAACGCA	1.05
CGTACTGCGT	0.941
CCTGTCTAGT	0.973
GCTTGTTTTG	0.98
TACCTGATCG	1.12
TTCATTTATA	1.08
GAGCACTGCG	1.06
GCGCCCCGTG	1.18
CACAACTCCT	1.08

Sequence	switch fluorescence ratio
AGTACGATTT	0.991
CCAAACTCGC	1.06
CCCCGGTAGA	1.14
CGCAATGATT	3.52
GGGGGGCAA	1.09
ATCTATTTAC	1.06
GAAGCAGGT	1.02
CTGATCGTGA	1.13
AAAGCCGGC	1.07
AGGTTTAAGA	0.991
TTATGAACCG	1.01
AATGACGTTA	1.09
GTTAAATATT	1.01
GATTATAAAT	0.958
CCCGGGCGGT	1.01
ACTGTGTGG	1
TCTGTGAAAG	1.56
TTTACAGGCA	1.01
CCTTTATATT	1.09
GGGCAGATA	1.01
AAATCTTACG	1.04
TTGTAGGCTT	0.995
GGTACATCTT	1.02
CGATTCGTGG	1
CGGTTGTTTA	1
ATTAGTGAT	0.982

Sequence	switch fluorescence ratio
TCCTTACTGT	1.05
GGCTCGCCCC	1.04
AATCAGATAC	1.24
TGGTATATAC	1.06
CATATATCAC	1.04
ACGGAGCCCT	1.2
GAAGAAGTTT	0.987
CGTAAGTAGT	0.991
ATCGAAAGCA	0.974
GATACATGCA	1.04
GAGAGGTTAT	1.03
AGGGTAATCT	1.14
AGGCATAGAA	0.99
ATTCACGTGG	1.01
TTCGCCACCG	1.01
ACGTGATGGC	1.05
ACTGTTGGAC	1.02
GGGAACTAGG	1.08
TCGTCTGGTG	1.03
